From publication PMC6707248
No constants are given. Whether binding was seen depends on the method and setting. Sequences can lack the tags named with a protein.

Chains of the proteins cited; added tags and fusions are not shown.
UniProt P06748: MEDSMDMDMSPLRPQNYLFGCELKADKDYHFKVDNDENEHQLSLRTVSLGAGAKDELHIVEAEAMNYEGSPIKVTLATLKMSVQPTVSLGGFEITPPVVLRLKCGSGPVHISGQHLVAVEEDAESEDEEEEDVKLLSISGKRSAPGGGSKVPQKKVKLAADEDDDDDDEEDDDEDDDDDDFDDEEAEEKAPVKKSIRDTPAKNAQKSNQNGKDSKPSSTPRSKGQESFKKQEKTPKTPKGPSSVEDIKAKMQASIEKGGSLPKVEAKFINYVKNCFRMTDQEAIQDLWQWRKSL

Target: GST-NPM1 (unSUMOylated) (UniProt P06748)
Assay: pull-down; GST pull-down; His-RAP80 FL or ΔSIM and GST-NPM1 purified from E. coli; GST-NPM1 SUMOylated in vitro or not; both purified

B1: His-RAP80 ΔSIM (protein, UniProt Q96RL1)
chain: MPRRKKKVKEVSESRNLEKKDVETTSSVSVKRKRRLEDAGEEPKEENGLQKTKTKQSNRAKCLAKRKIAQMTEEEQFALALKMSEQEAREVNSQEEEEEELLRKAIAESLNSCRPSDASATRSRPLATGPSSQSHQEKTTDSGLTEGIWQLVPPSLFKGSHISQGNEAEEREEPWDHTEKTEEEPVSGSSGSWDQSSQPVFENVNVKSFDRCTGHSAEHTQCGKPQESTGRGSAFLKAVQGSGDTSRHCLPTLADAKGLQDTGGTVNYFWGIPFCPDGVDPNQYTKVILCQLEVYQKSLKMAQRQLLNKKGFGEPVLPRPPSLIQNECGQGEQASEKNECISEDMGDEDKEERQESRASDWHSKTKDFQESSIKSLKEKLLLEEEPTTSHGQSSQGIVEETSEEGNSVPASQSVAALTSKRSLVLMPESSAEEITVCPETQLSSSETFDLEREVSPGSRDILDGVRIIMADKEVGNKEDAEKEVAISTFSSSNQVSCPLCDQCFPPTKIERHAMYCNGLMEEDTVLTRRQKEAKTKSDSGTAAQTSLDIDKNEKCYLCKSLVPFREYQCHVDSCLQLAKADQGDGPEGSGRACSTVEGKWQQRLKNPKEKGHSEGRLLSFLEQSEHKTSDADIKSSETGAFRVPSPGMEEAGCSREMQSSFTRRDLNESPVKSFVSISEATDCLVDFKKQVTVQPGSRTRTKAGRGRRRKF
In the case of B1, the binding is reported as “no binding”.
